The other results are listed elsewhere or left out.
Key:
HSkMC = human skeletal muscle cells; assay: cytotoxicity call (relative viability < 0.9); settings: 10 µM
HepG2 = assay: cytotoxicity call (relative viability < 0.9); settings: 10 µM
S. aureus RN4220 = assay: growth inhibition call (relative growth <= 0.2); settings: 50 µM

Structure (SMILES) | cytotoxicity call (HSkMC) | cytotoxicity call (HepG2) | growth inhibition call (S. aureus RN4220)
C[C@@H]1CN([C@@H](C)CO)C(=O)c2cccc(NS(C)(=O)=O)c2O[C@@H]1CN(C)C(=O)Nc1ccc2c(c1)OCO2 | inactive | inactive | inactive
CCCNC(=O)Nc1ccc2c(c1)C(=O)N(C)C[C@H](OC)[C@@H](C)CN(C(=O)C1CCOCC1)[C@@H](C)CO2 | inactive | inactive | inactive
O=c1cc(-c2ccc(O)cc2)oc2ccc(O)cc12 | inactive | inactive | inactive
Cc1ccnn1-c1ccc(CN)cc1 | inactive | inactive | inactive
CN(C)CC(=O)N[C@@H]1CC[C@@H](CC(=O)NCCN2CCCCC2)O[C@@H]1CO | inactive | inactive | inactive
CNS(=O)(=O)c1ccc(Cl)c(C(N)=O)c1 | inactive | inactive | inactive
COc1ccc(NC(=O)Nc2ccc3c(c2)C(=O)N([C@H](C)CO)C[C@H](C)[C@@H](CN(C)Cc2ccc4c(c2)OCO4)OCCCC[C@@H](C)O3)cc1 | inactive | inactive | inactive
COc1cccc(S(=O)(=O)N(C)C[C@H]2Oc3cc(C4=CCCC4)ccc3S(=O)(=O)N([C@@H](C)CO)C[C@H]2C)c1 | inactive | inactive | inactive
O=C(C[C@H]1C=C[C@@H](NS(=O)(=O)c2ccc(F)cc2)[C@H](CO)O1)NCCN1CCCCC1 | inactive | inactive | inactive
C[C@H]1CN([C@@H](C)CO)C(=O)c2cc(-c3ccc(C(=O)N(C)C)cc3)cnc2O[C@H]1CN(C)C(=O)C1CC1 | inactive | inactive | inactive
C[C@H](CO)N1C[C@H](C)[C@H](CN(C)CC2CC2)Oc2cc(C#Cc3ccc(F)cc3)ccc2S1(=O)=O | inactive | inactive | inactive
Cc1ccc(S(=O)(=O)N(C)C[C@@H]2OCCCC[C@H](C)Oc3ccc(NC(=O)NC4CCCCC4)cc3C(=O)N([C@H](C)CO)C[C@@H]2C)cc1 | inactive | inactive | inactive
C[C@H](N)C(=O)NCC(=O)N[C@H]1CSSC[C@@H](C(=O)O)NC(=O)[C@H](CO)NC(=O)[C@H]([C@@H](C)O)NC(=O)[C@H](Cc2ccccc2)NC(=O)[C@H]([C@@H](C)O)NC(=O)[C@H](CCCCN)NC(=O)[C@H](Cc2c[nH]c3ccccc23)NC(=O)[C@H](Cc2ccccc2)NC(=O)[C@H](Cc2ccccc2)NC(=O)[C@H](CC(N)=O)NC(=O)[C@H](CCCCN)NC1=O | inactive | inactive | inactive
CCCCC(CC)CN1CN(CC(CC)CCCC)CC(C)(N)C1 (configuration not stated) | active | active | inactive
C[C@@H]1CN([C@H](C)CO)C(=O)c2cc(NS(=O)(=O)c3ccc(Cl)cc3)ccc2O[C@@H](C)CCCCO[C@H]1CN(C)S(=O)(=O)c1cccs1 | inactive | inactive | inactive
COc1ccc(S(=O)(=O)N[C@@H]2CC[C@@H](CC(=O)N3CCN(c4ccccc4)CC3)O[C@@H]2CO)cc1 | inactive | inactive | inactive
COc1ccc(NC(=O)N(C)C[C@@H]2OCCCC[C@H](C)Oc3ccc(NC(=O)CCC(F)(F)F)cc3C(=O)N([C@H](C)CO)C[C@@H]2C)cc1 | inactive | inactive | inactive
C[C@@H]1CN([C@@H](C)CO)C(=O)c2cccc(NS(C)(=O)=O)c2O[C@@H]1CN(C)C(=O)Nc1ccccc1 | inactive | inactive | inactive
C[C@@H]1CN([C@H](C)CO)C(=O)CCCn2nncc2CO[C@H]1CN(C)C(=O)Nc1ccc(N2CCCCC2)cc1 | inactive | inactive | inactive
Cc1noc(C)c1S(=O)(=O)Nc1ccc2c(c1)CC(=O)N([C@H](C)CO)C[C@@H](C)[C@H](CN(C)S(=O)(=O)c1ccc(F)cc1)O2 | inactive | inactive | inactive
COc1ccccc1NC(=O)N(C)C[C@H]1Oc2ncc(C#CC(C)C)cc2C(=O)N([C@H](C)CO)C[C@H]1C | inactive | inactive | inactive
C[C@@H]1CCCCO[C@@H](CN(C)Cc2ccc3c(c2)OCO3)[C@@H](C)CN([C@@H](C)CO)C(=O)c2cc(NS(=O)(=O)c3ccc(F)cc3)ccc2O1 | inactive | active | inactive
CN1C(=O)c2cc(NS(C)(=O)=O)ccc2OC[C@H]2O[C@H](CC(=O)N3CCOCC3)CC[C@@H]21 | inactive | inactive | inactive
C[C@H]1CN([C@@H](C)CO)C(=O)c2cc(NS(C)(=O)=O)ccc2O[C@@H]1CN(C)Cc1ccc(C(=O)Nc2ccccc2N)cc1 | inactive | inactive | inactive
CCOC(=O)c1cc2c(c(-c3cccc(-c4cccc(F)c4)c3)n1)[C@H](CCO)N(S(=O)C(C)(C)C)C2 (some centres not stated) | inactive | inactive | inactive
Cc1ccc(S(=O)(=O)Nc2cccc3c2O[C@@H](CN(C)C(=O)Nc2ccc(C(F)(F)F)cc2)[C@H](C)CN([C@H](C)CO)C3=O)cc1 | inactive | inactive | inactive
NC(=O)NCCCC(=O)O | inactive | inactive | inactive

Structure (SMILES) | cytotoxicity call (HSkMC) | cytotoxicity call (HepG2) | growth inhibition call (S. aureus RN4220)
CC(=O)OC[C@H]1O[C@@H](n2ccc(=O)[nH]c2=O)[C@H](OC(C)=O)[C@@H]1OC(C)=O | inactive | inactive | inactive
C[C@H](CO)N1C[C@H](C)[C@H](CN(C)C(=O)Nc2cccc3ccccc23)OCCCC[C@H](C)Oc2ccc(NS(=O)(=O)c3ccc(Cl)cc3)cc2C1=O | inactive | inactive | inactive
OCC1=C[C@@H](O)[C@@H]2C=CO[C@@H](O[C@@H]3O[C@H](CO)[C@@H](O)[C@H](O)[C@H]3O)[C@H]12 | inactive | inactive | inactive
CC(=O)O[C@H]1C[C@@]2(C)[C@H]3CC=C4[C@@H](C[C@@H](O[C@H]5O[C@@H](CO)[C@@H](O)[C@@H](O)[C@@H]5O)[C@@H](O)C4(C)C)[C@@]3(C)CC[C@@]2(C)[C@@H]1C(C)(O)C(=O)CCC(C)(C)O (some centres not stated) | inactive | inactive | inactive
C[C@H](CO)N1C[C@H](C)[C@@H](CN(C)Cc2ccc(C(F)(F)F)cc2)Oc2ccc(NC(=O)NC3CCCCC3)cc2C1=O | inactive | inactive | inactive
C[C@@H]1CN([C@@H](C)CO)C(=O)c2cc(NC(=O)C3CCCCC3)ccc2O[C@@H](C)CCCCO[C@H]1CN(C)S(=O)(=O)c1ccccc1 | inactive | inactive | inactive
CCCC#Cc1ccc2c(c1)O[C@@H](CN(C)S(=O)(=O)c1cccc(F)c1)[C@H](C)CN([C@H](C)CO)S2(=O)=O | inactive | inactive | inactive
C[C@H](CO)N1C[C@H](C)[C@H](CN(C)C(=O)Nc2ccc3c(c2)OCO3)OCCCC[C@H](C)Oc2ccc(NC(=O)Nc3cccc4ccccc34)cc2C1=O | inactive | inactive | inactive
C[C@H]1CN([C@@H](C)CO)S(=O)(=O)c2ccc(C#CCN(C)C)cc2O[C@@H]1CN(C)Cc1ccccc1F | inactive | inactive | inactive
C[C@@H]1CCCCO[C@@H](CN(C)S(=O)(=O)c2cn(C)cn2)[C@H](C)CN([C@H](C)CO)C(=O)c2cc(NC(=O)Nc3cccc4ccccc34)ccc2O1 | inactive | inactive | inactive
CS(=O)(=O)Cc1nc2ccccc2oc1=O | inactive | inactive | inactive
C[C@H]1CCCCO[C@H](CN(C)C(=O)Nc2ccc(C(F)(F)F)cc2)[C@@H](C)CN([C@@H](C)CO)C(=O)c2cc(NS(C)(=O)=O)ccc2O1 | inactive | inactive | inactive
COc1ccc(NC(=O)Nc2cccc3c2O[C@@H](CN(C)C(=O)Nc2ccc(C(F)(F)F)cc2)[C@H](C)CN([C@@H](C)CO)C3=O)cc1 | inactive | inactive | inactive
C[C@@H]1CCCCO[C@@H](CN(C)CC2CCCCC2)[C@@H](C)CN([C@H](C)CO)C(=O)c2cc(NC(=O)Nc3ccc(C(F)(F)F)cc3)ccc2O1 | active | active | inactive
Nc1ccc(Sc2ccc3ccccc3c2Cl)c(Cl)c1 | inactive | inactive | active
C[C@H]1CN([C@@H](C)CO)C(=O)c2cc(NS(=O)(=O)c3ccccc3)ccc2O[C@@H]1CN(C)S(=O)(=O)c1cccs1 | inactive | inactive | inactive
C[C@@H]1CN([C@H](C)CO)C(=O)c2cc(NC(=O)Nc3ccc(F)cc3)ccc2O[C@@H](C)CCCCO[C@@H]1CN(C)Cc1ccc2c(c1)OCO2 | inactive | inactive | inactive
C[C@@H]1CN([C@@H](C)CO)C(=O)c2cc(NS(=O)(=O)c3ccc(F)cc3)ccc2O[C@@H](C)CCCCO[C@H]1CN(C)Cc1ccccc1 | inactive | inactive | inactive
Cc1noc(C)c1NC(=O)N(C)C[C@H]1Oc2c(NS(C)(=O)=O)cccc2C(=O)N([C@@H](C)CO)C[C@@H]1C | inactive | inactive | inactive
NC(=O)C[C@H](NC(=O)Cc1ccc(O)cc1O)C(=O)O | inactive | inactive | inactive
C[C@@H]1CCCCO[C@@H](CN(C)C(=O)c2ccccc2)[C@H](C)CN([C@H](C)CO)C(=O)c2cc(NS(=O)(=O)c3ccc(Cl)cc3)ccc2O1 | inactive | inactive | inactive
CC(O)(P(=O)(O)O)P(=O)(O)O | inactive | inactive | inactive
COc1c(O)cc2c(c1O)C1OC(CO)C(O)C(O)C1OC2=O (configuration not stated) | inactive | inactive | inactive
C[C@@H]1CN([C@@H](C)CO)C(=O)Cc2cc(NC(=O)Nc3ccc(F)cc3)ccc2O[C@H]1CN(C)S(=O)(=O)c1cn(C)cn1 | inactive | inactive | inactive
C[C@H](CO)N1C[C@H](C)[C@H](CN(C)S(C)(=O)=O)Oc2c(NC(=O)Nc3ccc4c(c3)OCO4)cccc2C1=O | inactive | inactive | inactive
COc1ccc2c(c1OC)C(=O)OC2C1c2c(cc3c(c2OC)OCO3)CCN1C.Cl (configuration not stated) | inactive | active | inactive
C[C@@H]1CCCCO[C@@H](CN(C)C(=O)CCC(F)(F)F)[C@@H](C)CN([C@@H](C)CO)C(=O)c2cc(NC(=O)C3CCCCC3)ccc2O1 | inactive | inactive | inactive

— the antibiotic and cytotoxicity screens of Wong et al. (2023)
